The other results are listed elsewhere or left out. The list includes weakly bound sequences.
The sequences below were run against T1, MBP-FoxP3dN (UniProt Q99JB6) (assay: PD-seq (MBP pull-down with sequencing)). Details: 20 mM Tris-HCl pH 7.5, 100 mM NaCl, 1.5 mM MgCl2, 0.4 uM protein, 0.1 uM dsDNA library, 30 min, room temperature, amylose pull-down; high values mean tight binding; double strand, one strand shown.
T1 sequence: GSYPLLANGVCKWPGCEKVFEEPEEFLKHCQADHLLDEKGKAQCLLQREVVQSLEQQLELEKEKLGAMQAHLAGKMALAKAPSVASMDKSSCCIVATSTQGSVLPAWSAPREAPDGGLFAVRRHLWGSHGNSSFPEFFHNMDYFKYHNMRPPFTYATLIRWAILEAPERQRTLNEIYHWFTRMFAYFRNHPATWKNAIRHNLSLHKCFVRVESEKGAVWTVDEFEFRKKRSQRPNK

Sequence | binding signal (RPM ratio (pull-down/input))
GATGATTGTTCTCCCAGCTGATGAATTTATGTATTCGAGTAAACAAATTTTCCTAATCTTTCTGTTCAAGCGCCATCTAC | 4.45
GATGATTGTTCTCCCAGCTGATGAATTAATAGCGTCGAGTAAACAAATTTTCCTAATCTTTCTGTTCAAGCGCCATCTAC | 0.661
GATGATTGTTCTCCCAGCTGATGAATTGCGGTGGTCGAGTAAACAAATTTTCCTAATCTTTCTGTTCAAGCGCCATCTAC | 0.842
GATGATTGTTCTCCCAGCTGATGAATTCACCGACTCGAGTAAACAAATTTTCCTAATCTTTCTGTTCAAGCGCCATCTAC | 0.237
GATGATTGTTCTCCCAGCTGATGAATTATATCGATCGAGTAAACAAATTTTCCTAATCTTTCTGTTCAAGCGCCATCTAC | 0.48
GATGATTGTTCTCCCAGCTGATGAATTAGAGAAATCGAGTAAACAAATTTTCCTAATCTTTCTGTTCAAGCGCCATCTAC | 0.329
GATGATTGTTCTCCCAGCTGATGAATTAGTCTCCTCGAGTAAACAAATTTTCCTAATCTTTCTGTTCAAGCGCCATCTAC | 0.582
GATGATTGTTCTCCCAGCTGATGAATTACACACATCGAGTAAACAAATTTTCCTAATCTTTCTGTTCAAGCGCCATCTAC | 0.857
GATGATTGTTCTCCCAGCTGATGAATTGCGTGAATCGAGTAAACAAATTTTCCTAATCTTTCTGTTCAAGCGCCATCTAC | 0.95
GATGATTGTTCTCCCAGCTGATGAATTAAGAGTCTCGAGTAAACAAATTTTCCTAATCTTTCTGTTCAAGCGCCATCTAC | 1.2
GATGATTGTTCTCCCAGCTGATGAATTATATATATCGAGTAAACAAATTTTCCTAATCTTTCTGTTCAAGCGCCATCTAC | 1.27
GATGATTGTTCTCCCAGCTGATGAATTAAACTAGTCGAGTAAACAAATTTTCCTAATCTTTCTGTTCAAGCGCCATCTAC | 0.282
GATGATTGTTCTCCCAGCTGATGAATTGACGACTTCGAGTAAACAAATTTTCCTAATCTTTCTGTTCAAGCGCCATCTAC | 0.483
GATGATTGTTCTCCCAGCTGATGAATTCTTGTATTCGAGTAAACAAATTTTCCTAATCTTTCTGTTCAAGCGCCATCTAC | 1.7
GATGATTGTTCTCCCAGCTGATGAATTTTGCAATTCGAGTAAACAAATTTTCCTAATCTTTCTGTTCAAGCGCCATCTAC | 5.75
GATGATTGTTCTCCCAGCTGATGAATTAAGCAGGTCGAGTAAACAAATTTTCCTAATCTTTCTGTTCAAGCGCCATCTAC | 0.469
GATGATTGTTCTCCCAGCTGATGAATTTGACACCTCGAGTAAACAAATTTTCCTAATCTTTCTGTTCAAGCGCCATCTAC | 1.59
GATGATTGTTCTCCCAGCTGATGAATTGACGAGGTCGAGTAAACAAATTTTCCTAATCTTTCTGTTCAAGCGCCATCTAC | 0.237
GATGATTGTTCTCCCAGCTGATGAATTGATCCCATCGAGTAAACAAATTTTCCTAATCTTTCTGTTCAAGCGCCATCTAC | 0.368
GATGATTGTTCTCCCAGCTGATGAATTGTGCCGCTCGAGTAAACAAATTTTCCTAATCTTTCTGTTCAAGCGCCATCTAC | 3.3

Sequence | binding signal (RPM ratio (pull-down/input))
GATGATTGTTCTCCCAGCTGATGAATTGATGAGTTCGAGTAAACAAATTTTCCTAATCTTTCTGTTCAAGCGCCATCTAC | 0.832
GATGATTGTTCTCCCAGCTGATGAATTCCGGGTGTCGAGTAAACAAATTTTCCTAATCTTTCTGTTCAAGCGCCATCTAC | 0.669
GATGATTGTTCTCCCAGCTGATGAATTTTTGGACTCGAGTAAACAAATTTTCCTAATCTTTCTGTTCAAGCGCCATCTAC | 0.234
GATGATTGTTCTCCCAGCTGATGAATTCGGGGACTCGAGTAAACAAATTTTCCTAATCTTTCTGTTCAAGCGCCATCTAC | 0.369
GATGATTGTTCTCCCAGCTGATGAATTTAACTAGTCGAGTAAACAAATTTTCCTAATCTTTCTGTTCAAGCGCCATCTAC | 0.336
GATGATTGTTCTCCCAGCTGATGAATTTAGATAATCGAGTAAACAAATTTTCCTAATCTTTCTGTTCAAGCGCCATCTAC | 0.583
GATGATTGTTCTCCCAGCTGATGAATTCTACTGCTCGAGTAAACAAATTTTCCTAATCTTTCTGTTCAAGCGCCATCTAC | 0.346
GATGATTGTTCTCCCAGCTGATGAATTGCCGCGGTCGAGTAAACAAATTTTCCTAATCTTTCTGTTCAAGCGCCATCTAC | 0.522
GATGATTGTTCTCCCAGCTGATGAATTTTCACTTTCGAGTAAACAAATTTTCCTAATCTTTCTGTTCAAGCGCCATCTAC | 0.294
GATGATTGTTCTCCCAGCTGATGAATTCTCACTGTCGAGTAAACAAATTTTCCTAATCTTTCTGTTCAAGCGCCATCTAC | 0.285
GATGATTGTTCTCCCAGCTGATGAATTGCGTAGATCGAGTAAACAAATTTTCCTAATCTTTCTGTTCAAGCGCCATCTAC | 0.82
GATGATTGTTCTCCCAGCTGATGAATTTTGTTCCTCGAGTAAACAAATTTTCCTAATCTTTCTGTTCAAGCGCCATCTAC | 1.64
GATGATTGTTCTCCCAGCTGATGAATTGTCGGTGTCGAGTAAACAAATTTTCCTAATCTTTCTGTTCAAGCGCCATCTAC | 0.555
GATGATTGTTCTCCCAGCTGATGAATTCCCATGTTCGAGTAAACAAATTTTCCTAATCTTTCTGTTCAAGCGCCATCTAC | 0.414
GATGATTGTTCTCCCAGCTGATGAATTTCCTACCTCGAGTAAACAAATTTTCCTAATCTTTCTGTTCAAGCGCCATCTAC | 0.264
GATGATTGTTCTCCCAGCTGATGAATTTATCAGGTCGAGTAAACAAATTTTCCTAATCTTTCTGTTCAAGCGCCATCTAC | 0.603
GATGATTGTTCTCCCAGCTGATGAATTACAGTAGTCGAGTAAACAAATTTTCCTAATCTTTCTGTTCAAGCGCCATCTAC | 0.54
GATGATTGTTCTCCCAGCTGATGAATTCGCCGCGTCGAGTAAACAAATTTTCCTAATCTTTCTGTTCAAGCGCCATCTAC | 0.542
GATGATTGTTCTCCCAGCTGATGAATTTAGCCTGTCGAGTAAACAAATTTTCCTAATCTTTCTGTTCAAGCGCCATCTAC | 4.82
GATGATTGTTCTCCCAGCTGATGAATTACCTCAATCGAGTAAACAAATTTTCCTAATCTTTCTGTTCAAGCGCCATCTAC | 0.271

Source: PMC12820563
